The chains are these.
B1: LINE1-mini (parent)
chain: GGCAGAGCUCAACACAGCGUGGCAAAGUGGCUGUGGCUAGACUGCC

The source gives no read counts; variants with many changes may rest on few reads.

The variants in the data set derive from B1. Description: self-cleavage, relative activity (ratio to wild type); higher = more cleavage; in vitro, sequencing; the parent is a self-cleaving ribozyme.
In the case of GGCAGAGGUCAACACGGCGUGGCAAAGUGGCGGUGUCUAGUCUGCC, the self-cleavage is 0.02.
Turning to GGCAGAGAGCAACACAGCGUGGCAAAGUGGCUGUGGCUUGGCUGUC, the self-cleavage was found to be 0.
Turning to GGCAGAGGUCAACACUGCGUGGCUAAGUGGCUGUGGCUGGACUGCC, the self-cleavage stood at 0.04.
To GGCAGAGGUCACCACAGCGUGGCAAAGUGGCAGUUGCUAGACUGCC belongs 0.02; to GGCAGAGAUCAACACAGCGUGGCAAAGUGGCUGUGGCUAGACUUUC, 0.28; to GGCAGAGGUCAACGCAGCGUGGAAAAUUGGCUGUGGCUAUACUGCC, 0.07.
To GGCAGAGGUUAACACCGCGUGGCAAAGUGGCUGUGGCUAGACUGCC belongs 0.04; to GGCAGAGGUCUACACAGCGUGGCAAAGUGGCUGUGGCUCGACUGCC, 0.01; to GGCAGAGAUCAACACAGCGUGGCAAAGUAGCUAUGGCAAUACUGCC, 0.12.
For the variant GGCAGAGAUCAACACAGCGUGGCAAAGUGGCUAUGUCUAGACCACU, the self-cleavage is 0.14.
For GGCAGAGAUCAACACAGCGUGGCAAAGUGGCUGUCACUGGACUGCC, the self-cleavage amounted to 0.11.
Take GGCAGAGACCCACACAGGGUGGCAAAGUGGCUGUGGGUAGACUGCC: the self-cleavage was determined as 0.01.
The same measure for GGCAGAGGUAAACACAGCGUGGCAAAUAGGCUGUGGCUAGACUGAC: 0; for GGCAGAGAUCAACACAGCGUGGCAAAGUUGCUGUGGCUAGACAACC: 0.3.
As for GGCAGAGGUCAACACAGCGUGGCCAAGUGGGUGUGGCUAGACUGCC, the self-cleavage was determined as 0.05.
The same measure for GGCAGAGGUCAACUCAGCGUGGCAAAGUGGAUGUGGCUAGAGUGCC: 0.03.
Consider GGCAGAGAUCAACACAGCGUGGCAAAGUGGCUGUGGCUAGACUAUC, for which the self-cleavage was determined as 0.29.
Take GGCAGAGAUCAACACAGCGUGGCAAAGUGGCUGUGGCUAGACUAAC: the self-cleavage came to 0.11.
To GGCAGAGAUCAACACAGCGGGGCAAAGUUGCUGUGGCUAGACUGCC belongs 0.07; to GGCAGAGAGCACCACAGCGUGGCAAAGUGCCUGUGUCUAGACUGCC, 0.01.
To GGCAGAGGUCAAAACCGCGUGGCAAAGAGGCUGUGGCUUGACUGCG belongs 0.01; to GGCAGAGGUAAACACAACGUGGCAAGGUGGCUGGGGCUAGUCUGCC, 0.02.
In the case of GGCAGAGAACAACACAUCGUGGCAAAGUGGCUGUGGCUAGACUGCC, the self-cleavage came to 0.24.
For the variant GGCAGAGGUCAACACAGCGUGGCACAGUGGCGGUGACUAGACCGCU, the self-cleavage is 0.04.
To GGCAGAGGUAAACACCCCGUGGCUACGUGGCUGUGGCUAGACUGCC belongs 0.01; to GGCAGAGAUCAACACAGCGUGGCAAAGAGGCCGUGGCUAGACUGCC, 0.23.
To GGCAGAGAUCAACACAGCGUGGCAAAGUGGCCGUGGCUAAACUGCC belongs 0.06; to GGCAGAGGUCAACUCAGCGUGGCAAAGUGGCUGUGGCUAGCCUGCC, 0.19.
To GGCAGAGGUCAACUCCGCGUGGCAAAGUGGCUGUGGCUAGACUGCC belongs 0.
Take GGCAGAGGUCAACACAGCGUGGCAUAGUGGCUGUGGCUAAACUGCC: the self-cleavage amounted to 0.1.
To GGCAGAGGUAAACACAGCGUGGAAAAGUGGCUGUGGCUAGAUUGCC belongs 0.01; to GGCAGAGAUCAACACAGCGUGGCAAAGGGGCUGUGGCUAAACUGCC, 0.14.
To GGCAGAGGUCAACUCAAGGUGGCAAAGUGGCUGUGGCUAGACUGCC belongs 0.12; to GGCAGAGGUCAGCACAGCGUGGCUAGGUGUCUGUGGCUAGACUGCC, 0.08; to GGCAGAGGUCAACACAGCGUGGCAACGUGGCUGUGGCAAGAUUGCC, 0.1.
Regarding GGCAGAGAUCAACACAGCGUGGCAAAGUGGCUGUGUCUAGACUGGC, the self-cleavage came to 0.15.
To GGCAGAGAUCAACACAGCGUGGCAAAGUGGCUAUGGAUAAACUACC belongs 0.12.
Turning to GGCAGAGAUCAACACAGCGUGGCAAAGUGGCUGUUGCUAGACAGCC, the self-cleavage worked out at 0.07.
To GGCAGAGGUCAACACGUCUUGGCAAAGUGGCUGUGGCUAGACUGCC belongs 0.09.
As to GGCAGAGGUCAACACAGCGUGGCAACGUGUUUGUGGCUAGACUGCC, the self-cleavage amounted to 0.03.
The same measure for GGCAGAGGUCAGCACAGCGUGGCAAAAUGGCUGUGGGUAGACUGCC: 0.02; for GGCAGAGGUUAACACGGCGUGGCAAAGUGACUGUGGCUAGACUGCC: 0.04; for GGCAGAGGUCAACUCAGCGUGGCAAAGUGCCUGUGGCUAGACUGCC: 0.01.
To GGCAGAGGUCAACACAGCGUGGCAAGGUGGUUGUGGCUAGACUGCC belongs 0.04.
The same measure for GGCAGAGAUCAACACAGCGUGGCAAAGUUGCUGUGGCUAGACAGCC: 0.02; for GGCAGAGAUCAACACAGCGUGGCAAAGUCGCUGUGGCUAGCCUACC: 0.04; for GGCAGAGAUCAACACAGCGGGGCAAAGUGGGUGUGGCUCGACUGCC: 0.02.
On to GGCAGAGGUCUACACAGAGUGUCAAAAUGGCUGUAGCUAGACUGCC, for which the self-cleavage is 0.01.
To GGCAGAGAGCAACACAGCGUGCCUAAGUGGCUGUGUCUAGACUGCC belongs 0.02.
In the case of GGCAGAGGUCAGGACAGCGUGGCAAAGUGGCUGUCGCUAGCCUGCC, the self-cleavage was 0.02.
To GGCAGAGGUCAGCACAGCGUGGCAAAGUGGCUGUGGAUAGACUGCC belongs 0.08; to GGCAGAGGUCAACACAGCGUGGCGAAGUGGCUGUGGCUAGACUGGC, 0.55; to GGCAGAGGUCAGCACAGCGUGGCAAAGUUGCUGUGGCGAGACUGCC, 0.01.
Take GGCAGAGAUCAACACAGCGUGGCAAAGUGGCUGUGGCUAGACUCCU: the self-cleavage was found to be 0.1.
To GGCAGAGGUUAACACAGCGUUGCAAAGUUGCUGUGGCUAGACAGCC belongs 0.04; to GGCAGAGGUCAACACAGCGUGGCACAGUAGCUGUGGCUAGACUGCC, 0.09.
For the variant GGCAGAGAUCAACACAGCGUGGCAAAGUGGCUGUUGCUAGACUGUC, the self-cleavage was determined as 0.63.
The same measure for GGCAGAGACCAACACAGCGUGGAAAAGUGGCUGUGGCUAGACUGGC: 0.03; for GGCAGAGAUCAACACAGCGUGGCAAAGUCGCUGUGGGUAGACUACC: 0.08; for GGCAGAGGUCAACACAGCGUGGCAAAGUGGCUGUGGCUGGACCCCC: 0.04.
The same measure for GGCAGAGAUCAACACAGCGUGGCAAAGCGGCUAUGACUAGACUGCC: 0.04.
Regarding GGCAGAGAUCAACACAGCGUGGCAAAGAGGCUGUGGCUAGACUUCC, the self-cleavage came out at 0.59.
To GGCAGAGAACAACACAGCGUGCCAAAGUGGAUGUGGCUAGAUUGCC belongs 0.34.
The same measure for GGCAGAGGUAAACACAGCGUGGCAAAGUGGCUGUGGCUAGUCUGCC: 0.02; for GGCAGAGGUAAACCCAGCGUGGCAAAGUGGCGGUGGCUAGAAUGCC: 0; for GGCAGAGGUCACCACAGCGAGGUAAAGUGGCUUUGGCUAGACUGCC: 0.01.
The same measure for GGCAGAGGUAAACACAGCCUGGCAAAGUGGCUGUGGCUAGACCGCC: 0; for GGCAGAGAUCAACACAGCGAGGCAGAGUGGCUGUGGGUAGACUGCC: 0.03.
GGCAGAGAUCAACACAGCGCGGCAAAGUGGCUGUGUCUAGACUGCC: the self-cleavage was 0.35.
The same measure for GGCAGAGGUAUACACUGCGCGGCAAAGUGGCUGUGGCUAGACUGCC: 0; for GGCAGAGACCAUCACAGCGGGGCAAAGUGGCAGUGGCUAGACUGCC: 0.01; for GGCAGAGGUCACCACAGCGUGGCAAAGUGGCUGUCGCUAGACUGCC: 0.04.
For the variant GGCAGAGGUCUACACAGCGUGGCAAAGUGGAUGAGGCUAGACUGCC, the self-cleavage amounted to 0.01.
To GGCAGAGAUCAACACAGCGUGGCAAAGGGGCUGUGGAUAGACUGCC belongs 0.01; to GGCAGAGGUCAACACAGCGUGGCAAUGUGGCUGUGGCUAGACUGGC, 0.07.
The same measure for GGCAGAGAUCAACACAGCGUGGCAAAGUGGCUGUCUCUAGACUGCC: 0.14.
The same measure for GGCAGAGGUCAGCACAGCGUGUCAAAGUGGCUGUGGCUAGACUUCC: 0.02.
Regarding GGCAGAGAUCAACACAGCGAGGCAAAGUGGUAGUGGCUAGACUGCC, the self-cleavage came to 0.1.
To GGCAGAGGUCAACACAGCGUGGCAUAUUGGCUGUGGCUAGACUGCC belongs 0.06; to GGCAGAGAUCAACACAGCGUGGCAAAGCGGCUGCGGCUAUAGUGCC, 0.02; to GGCAGAGGUAAAUACAGCGCGGCAAAGUGGCUGUGGCUAGACUGCA, 0.01.
Turning to GGCAGAGGUCAACACCGCGUGGCAAAGUGGCUGUGGCUAAACUGCC, the self-cleavage came to 0.02.
The same measure for GGCAGAGGUUAACACAGCGUGGCAAAGGAGCUGUGGAUAGACUGCC: 0.19; for GGCAGAGGUCAACACAGCGUGGCAUAGUGGCUGGGGCUAGACUGCA: 0.05; for GGCAGAGAGCAACAAAGCGGGGCAAAGUGGUUGUGGUUAGACGGCU: 0.02.
To GGCAGAGGUCAGUACAGCGUGGCAAAGUGGCUGUGGCUAGACUGCC belongs 0.03; to GGCAGAGGUCAACACGGCGUGCCAAAGUGGGUGUGGCUAGACUGCC, 0.02.
The same measure for GGCAGAGGUCAACGCAGCGUGGCAAAGUGGCAGUGGCUAGAGUGCC: 0.02.
Turning to GGCAGAGGUCAACACAGCGUGGCAGACUGGCUGUGGCUAGACUGCC, the self-cleavage was 0.01.
GGCAGAGGUUGGCACAGCGUGGCAAAGUGGCUGUGGCUAGACUGCC: the self-cleavage came out at 0.01.
In the case of GGCAGAGGUCAACACGGCGUGGCAAAGUGGCUGUGGCUCGACUGCC, the self-cleavage turned out to be 0.16.
On to GGCAGAGAUCAACACAGCGUGGCAAAGUGACUGUGGCUAAACUGCU, for which the self-cleavage was determined as 0.11.
Consider GGCAGAGAUCAACACAGCGGCGCAAGUUGACUGUGGCUAGACUGCC, for which the self-cleavage is 0.02.
Take GGCAGAGAUCAACACAGCGUGGCAAAGUGGCUGUGGCUAGACGACC: the self-cleavage came out at 0.3.
Regarding GGCAGAGAUCAACACAGCGUGGCAAAGUGGCUGGGGCUCGACUGCC, the self-cleavage amounted to 0.06.
In the case of GGCAGAGAACAUCACAGCGUGGCAAAGUUGCUGUGGCUGGACCGCC, the self-cleavage turned out to be 0.09.
To GGCAGAGAUCAACACAGCGCGGCAAAGUGGCUGUGGCUAGACUGCU belongs 0.26.
To GGCAGAGAUCAACACAGCGUGGCAAAGUUGCUGUGGCUUGACUGCC belongs 0.1; to GGCAGAGGUAAACACAUCGUGGCAAAGUGGCUGUGGCUAGACUGCC, 0.01; to GGCAGAGGUCAACGCCGGGUGGCAAAGUGGCUGUGGCUAGACUGCC, 0.02.
Turning to GGCAGAGGUAAACAGAGCGUGGCAAAGUGGCUGUGGCUAUACUGCC, the self-cleavage came to 0.01.
Regarding GGCAGAGAUCAACACAGCGUGGCAAAGUGUCUGUCGCUAGACUGCC, the self-cleavage turned out to be 0.03.
Take GGCAGAGGUCAACGCAGCGUGGCAAAGUGGCUGCGGCUAGACUGCC: the self-cleavage turned out to be 0.06.
To GGCAGAGGUCAACACCGCGUGGCAAAGUGGCUGUACCUAGAGUGCC belongs 0.01; to GGCAGAGGUCAACACCUCGUGGCAAAGUGGCUGUCGCUAGACUGCC, 0; to GGCAGAGAUCAACACAGCGUGGCAAAGUAUCCGUAGCUAGACUGCC, 0.1.
The same measure for GGCAGAGGUCAACUCAGCGUGGCAUAGUGGCUGUGGCUAGACUGCC: 0.02; for GGCAGAGAUCAACACAGCGAGGCAAAGUGGCUGUGGCGAGACUGCC: 0.05.
The same measure for GGCAGAGGUAAACACAGCGUGUCAAAGUGGCUGUGGCUAGACUGCC: 0.02; for GGCAGAGAUCAACACAGCGUGGCAAAGUGGCUGGGGCGAGACUGCC: 0.02; for GGCAGAGGUCAACGCAGCGUGGCAAAGUGGCUGUGACUUGACUGCC: 0.03.
As for GGCAGAGGUCGACACAGCGUGGCUAAGUGACUGUGGCUGGACUGCC, the self-cleavage came out at 0.01.

The values above are taken from the RNAGym collection of RNA variant scans (doi:10.7554/elife.90254).
